Measured values from patent US7087375B1, “Method for determining the mechanism of HIV RT inhibitors” (priority 2000, dated 2006).
Where “and” joins values, the source holds several entries; their conditions need not be identical. Equal entries are not always repeated.

Assays:
[1] = tested on: HXB2 site-directed mutant M41L, T69S-SS, L210W, R211K, L214F, T215Y; format: cell-based; settings: virus M41L
[2] = tested on: HXB2 site-directed mutant M41L, T69S-SG, L210W, R211K, L214F, T215Y; format: cell-based; settings: virus M41L
[3] = tested on: HXB2 site-directed mutant M41L, T69S-AG, L210W, R211K, L214F, T215Y; format: cell-based; settings: virus M41L
[4] = tested on: HXB2 site-directed mutant M41L, D67N, K70R, M184V, L210W, R211K, L214F, T215Y; format: cell-based; settings: virus M41L
[5] = tested on: HXB2 site-directed mutant M41L, D67N, K70R, T215Y; format: cell-based; settings: virus M41L
[6] = molecular target: HIV-1 RT with mutations D67N, K70R, T215F and K219Q (Human immunodeficiency virus type 1 group M subtype B, UniProt P04585, D654N/K657R/K806Q/T802F); settings: with PPi; cited from earlier work
[7] = tested on: HIV-1 with RT mutations D67N, K70R, T215F, K219Q; settings: cited from earlier work

Cc1cn([C@H]2C=C[C@@H](CO)O2)c(=O)[nH]c1=O [d4T, stavudine]
Fold resistance in IC50 relative to HXB2 [1]: 3.3 fold | Fold resistance in IC50 relative to HXB2 [2]: 8.3 fold and 8.3 +/− 1.8 fold | Fold resistance in IC50 relative to HXB2 [3]: 17.7 fold and 17.1 +/− 0.6 fold | Fold resistance in IC50 relative to HXB2 [4]: 4.0 fold and 4.0 +/− 1.3 fold | Fold resistance in IC50 relative to HXB2 [5]: 4.1 fold and 4.1 +/− 1.3 fold

AZT-TP
higher IC50 of mutant RT vs wild type [6]: 3 fold

O=c1[nH]cnc2c1ncn2[C@H]1CC[C@@H](CO)O1 [ddI, didanosine]
Fold resistance in IC50 relative to HXB2 [1]: 3.4 fold | Fold resistance in IC50 relative to HXB2 [2]: 4.4 fold | Fold resistance in IC50 relative to HXB2 [3]: 6.5 fold | Fold resistance in IC50 relative to HXB2 [4]: 8.7 fold | Fold resistance in IC50 relative to HXB2 [5]: 0.9 fold

Cc1cn([C@H]2C[C@H](N=[N+]=[N-])[C@@H](CO)O2)c(=O)[nH]c1=O [AZT, zidovudine]
Fold resistance in IC50 relative to HXB2 [1]: > 111 fold and >67 fold | increase in IC50 observed with the virus [7]: 100 fold | Fold resistance in IC50 relative to HXB2 [2]: > 96 fold | Fold resistance in IC50 relative to HXB2 [3]: > 96 fold | Fold resistance in IC50 relative to HXB2 [4]: 16 fold and 16.0 fold and 16.0 (+/−2) fold | Fold resistance in IC50 relative to HXB2 [5]: 24 fold and 24.1 fold and 24.1 (+/−14) fold

Nc1nc(NC2CC2)c2ncn([C@H]3C=C[C@@H](CO)C3)c2n1 [Abacavir, abacavir]
Fold resistance in IC50 relative to HXB2 [1]: 10.3 fold | Fold resistance in IC50 relative to HXB2 [2]: 12.0 fold | Fold resistance in IC50 relative to HXB2 [3]: 13.2 fold | Fold resistance in IC50 relative to HXB2 [4]: 10.4 fold | Fold resistance in IC50 relative to HXB2 [5]: 1.4 fold

Nc1ccn([C@@H]2CS[C@H](CO)O2)c(=O)n1 [3TC, lamivudine]
Fold resistance in IC50 relative to HXB2 [1]: 7.4 fold | Fold resistance in IC50 relative to HXB2 [2]: 20.3 fold | Fold resistance in IC50 relative to HXB2 [3]: 10.1 fold | Fold resistance in IC50 relative to HXB2 [4]: >129 fold | Fold resistance in IC50 relative to HXB2 [5]: 2.5 fold

Nc1ccn([C@H]2CC[C@@H](CO)O2)c(=O)n1 [ddC, zalcitabine]
Fold resistance in IC50 relative to HXB2 [1]: 2.4 fold | Fold resistance in IC50 relative to HXB2 [2]: 4.8 fold | Fold resistance in IC50 relative to HXB2 [3]: 3.0 fold | Fold resistance in IC50 relative to HXB2 [4]: 7.7 fold | Fold resistance in IC50 relative to HXB2 [5]: 0.8 fold
